The values that follow come from the RNAGym collection of RNA variant scans (doi:10.1073/pnas.2313332121).

Variants at the floor of the assay are shown more often than the library holds them.

Sequences and labels used below:
B1: TPR 5TU (parent)
chain: GGAUCUUCUCGAUCUAACAAAAAAGACAAAUCUGCCACAAAGCUUGAGAGCAUCUUCGGAUGCAGAGGCGGCAGCCUUCGGUGGCGCGAUAGCGCCAACGUUCUCAACUAUGACACGCAAAACGCGUGCUCCGUUGAAUGGAGUUUAUCAUG

The variants in the data set derive from B1. As to the kind of experiment: polymerase ribozyme fitness, log enrichment relative to wild type (log ratio); higher = more active; in vitro selection for triplet polymerase activity. The method, boiled down:
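Fitness measures genotype enrichment against wild-type enrichment on a logarithmic scale, with inverse-variance-weighted averaging of replicates. The logarithm is base 2, and genotypes were kept only with ≥10 input reads and ≥1 read per output in Illumina sequencing. The sequenced libraries came from one triplicate in vitro selection round, including frozen incubation at −7 °C, of PCR-built, transcribed mutant libraries of each subunit of a heterodimeric triplet polymerase ribozyme.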
With G83A G92U C118G, the “polymerase ribozyme fitness (log ratio)” value is -1.41.

For G83U G112C A115G C131U C132U, the “polymerase ribozyme fitness (log ratio)” value was ≤ -4.2.

For the variant G83A A107G G136A G140A, the “polymerase ribozyme fitness (log ratio)” value is ≤ -4.2.

With G81A A89C, the “polymerase ribozyme fitness (log ratio)” value is -0.165.

On to U82C C85U C114A, for which the “polymerase ribozyme fitness (log ratio)” value was -3.22.

As to G83A G88U A89U G100U C125A, the “polymerase ribozyme fitness (log ratio)” value was ≤ -4.2.

With G83C G112A, the “polymerase ribozyme fitness (log ratio)” value is ≤ -4.2.

With C79U G140U, the “polymerase ribozyme fitness (log ratio)” value is -3.68.

As to G81A C99G G100C G128A U146G, the “polymerase ribozyme fitness (log ratio)” value is ≤ -4.2.

Regarding G84A U148A, the “polymerase ribozyme fitness (log ratio)” value is -2.74.

As for G84A U148C, the “polymerase ribozyme fitness (log ratio)” value was -2.65.

Take G81C G84A A115C G133U C149U: the “polymerase ribozyme fitness (log ratio)” value is ≤ -4.2.

In the case of G83A U135G, the “polymerase ribozyme fitness (log ratio)” value is ≤ -4.2.

As for U82A C93U A119U U127G G143C, the “polymerase ribozyme fitness (log ratio)” value was -4.06.

As for U82G A137C, the “polymerase ribozyme fitness (log ratio)” value is -2.98.

Take G84A G92U A107U G140C G143C: the “polymerase ribozyme fitness (log ratio)” value was ≤ -4.2.

In the case of G80U A91C A106U C132G, the “polymerase ribozyme fitness (log ratio)” value was ≤ -4.2.

As to G84A U145C, the “polymerase ribozyme fitness (log ratio)” value is -0.153.

In the case of G81U C85U A115C G136C, the “polymerase ribozyme fitness (log ratio)” value is -3.36.

For G83U G133C, the “polymerase ribozyme fitness (log ratio)” value is -2.09.

As for C79U C103G, the “polymerase ribozyme fitness (log ratio)” value was ≤ -4.2.

For U82A C118A G140A, the “polymerase ribozyme fitness (log ratio)” value was ≤ -4.2.

Take G83C G136U: the “polymerase ribozyme fitness (log ratio)” value is -2.46.

Take G83C G136A: the “polymerase ribozyme fitness (log ratio)” value is -0.101.

In the case of G83A A119C, the “polymerase ribozyme fitness (log ratio)” value is -2.44.

For G83C G117U, the “polymerase ribozyme fitness (log ratio)” value was -1.62.

With G80C G86U C99G U109G U127G G141C, the “polymerase ribozyme fitness (log ratio)” value is ≤ -4.2.

Take G80U U82C: the “polymerase ribozyme fitness (log ratio)” value is -1.68.

For the variant G83C G88C, the “polymerase ribozyme fitness (log ratio)” value was ≤ -4.2.

Take G80U C114U: the “polymerase ribozyme fitness (log ratio)” value was -2.31.

As for G81A A91C C95G G124C, the “polymerase ribozyme fitness (log ratio)” value is ≤ -4.2.

In the case of G80U C108G, the “polymerase ribozyme fitness (log ratio)” value was ≤ -4.2.

G84A A137U U148C: the “polymerase ribozyme fitness (log ratio)” value was ≤ -4.2.

Regarding G84C G92U A150U, the “polymerase ribozyme fitness (log ratio)” value was -2.39.

G81C U109G A110U U134C: the “polymerase ribozyme fitness (log ratio)” value is ≤ -4.2.

Regarding G84A C93U, the “polymerase ribozyme fitness (log ratio)” value is -1.83.

In the case of U82A A107U, the “polymerase ribozyme fitness (log ratio)” value was -2.79.

In the case of G83A C132G G133C, the “polymerase ribozyme fitness (log ratio)” value was -2.67.

Take G84C A120G U127A U135A: the “polymerase ribozyme fitness (log ratio)” value is ≤ -4.2.

Turning to G84C C95A A142C, the “polymerase ribozyme fitness (log ratio)” value is -1.65.

Take G84A A91U: the “polymerase ribozyme fitness (log ratio)” value is ≤ -4.2.

C79U C93A A98U A122U: the “polymerase ribozyme fitness (log ratio)” value was -4.

Consider G81C U102C A147G, for which the “polymerase ribozyme fitness (log ratio)” value was -3.21.

With G83C C96U C108G G143U, the “polymerase ribozyme fitness (log ratio)” value is ≤ -4.2.

For G83A G88A A91G G112U G140U G143C, the “polymerase ribozyme fitness (log ratio)” value is ≤ -4.2.

Turning to U82A C99A C118U, the “polymerase ribozyme fitness (log ratio)” value is -1.42.

As to G83C U146A, the “polymerase ribozyme fitness (log ratio)” value is -0.565.

Turning to G81A G88C A120U U134G G141C C149U, the “polymerase ribozyme fitness (log ratio)” value is ≤ -4.2.

Regarding G80A A91C C93U A115G A120G, the “polymerase ribozyme fitness (log ratio)” value is ≤ -4.2.

Consider G83C C116A A121C, for which the “polymerase ribozyme fitness (log ratio)” value came to 0.158.

Consider U82A G84U G94U A150G, for which the “polymerase ribozyme fitness (log ratio)” value was ≤ -4.2.

In the case of G80A C93U U102A, the “polymerase ribozyme fitness (log ratio)” value is -3.01.

For U82C C114U, the “polymerase ribozyme fitness (log ratio)” value is -1.99.

As to G83C G100U U135G G141U A150C, the “polymerase ribozyme fitness (log ratio)” value is ≤ -4.2.

For G83C U148A, the “polymerase ribozyme fitness (log ratio)” value was -3.1.

Take G83A G88U A106G G117U G136U: the “polymerase ribozyme fitness (log ratio)” value is ≤ -4.2.

For G83C C87A C118U U151G, the “polymerase ribozyme fitness (log ratio)” value is ≤ -4.2.

For the variant U82C G86A, the “polymerase ribozyme fitness (log ratio)” value is -2.06.

Take G84A C114A G136C: the “polymerase ribozyme fitness (log ratio)” value was ≤ -4.2.

Consider G83U C93U A113C A122C, for which the “polymerase ribozyme fitness (log ratio)” value is ≤ -4.2.

Consider C79U C87A U139A, for which the “polymerase ribozyme fitness (log ratio)” value was ≤ -4.2.

Take G83C G92A U127A G128U: the “polymerase ribozyme fitness (log ratio)” value is ≤ -4.2.

Consider G80A A89U C95U A120G, for which the “polymerase ribozyme fitness (log ratio)” value is -1.11.

In the case of G81A U144C, the “polymerase ribozyme fitness (log ratio)” value is -1.41.

As to U82G C95A, the “polymerase ribozyme fitness (log ratio)” value is -1.03.

For the variant G83A G124C, the “polymerase ribozyme fitness (log ratio)” value is -2.64.

Consider G83U A106U C131G G133C G140U, for which the “polymerase ribozyme fitness (log ratio)” value is ≤ -4.2.

Take U82G C85U C95A A110U: the “polymerase ribozyme fitness (log ratio)” value is ≤ -4.2.

With G83A C108U, the “polymerase ribozyme fitness (log ratio)” value is -3.01.

G81A C85U C132A: the “polymerase ribozyme fitness (log ratio)” value was -2.23.

Regarding G83U G100U, the “polymerase ribozyme fitness (log ratio)” value was -3.9.

In the case of G81C G83U G92C U101G, the “polymerase ribozyme fitness (log ratio)” value was ≤ -4.2.

G83C U90G A91U G92C C123A U151C: the “polymerase ribozyme fitness (log ratio)” value was ≤ -4.2.

G83A G141C: the “polymerase ribozyme fitness (log ratio)” value was -1.87.

Take G80A C96G: the “polymerase ribozyme fitness (log ratio)” value is -1.11.

Regarding G84A A98G, the “polymerase ribozyme fitness (log ratio)” value was -2.7.

For the variant G83C C95U G126A, the “polymerase ribozyme fitness (log ratio)” value is -2.05.

As to G80A A142U U144C, the “polymerase ribozyme fitness (log ratio)” value was -3.55.

In the case of U82G G86U, the “polymerase ribozyme fitness (log ratio)” value was -1.46.

Turning to G83U C95G, the “polymerase ribozyme fitness (log ratio)” value is -1.54.

For the variant G83C G84U C87U U102G A107U, the “polymerase ribozyme fitness (log ratio)” value was ≤ -4.2.

With G80A G126A, the “polymerase ribozyme fitness (log ratio)” value was -0.283.

G83A G88U: the “polymerase ribozyme fitness (log ratio)” value was ≤ -4.2.

In the case of G83C C99A G133A, the “polymerase ribozyme fitness (log ratio)” value is -4.12.
